The conditions of the data set: 0.1 μM, plus 1 mM UDPGA, first-order kinetics.

Bounds are passed on as bounds.

Take `CN(C(=O)/C=C/c1ccoc1)[C@@H]1CC[C@@]2(O)[C@H]3Cc4ccc(O)c5c4[C@@]2(CCN3CC2CC2)[C@H]1O5.Cl` [Compound 11, (2E)-N-[6β-17-(Cyclopropylmethyl)-3,14-dihydroxy-4,5α-epoxy-morphinan-6-yl]-3-(3-furanyl)-N-methyl-2-propenamide hydrochloride]: the “T1/2 (human liver S9)” value is > 1 h.

For the origin of these results see PMC10243363 (ACS chemical neuroscience, 2022).
